Data reported in article PMC9963398, “Discovery of New Quinolone-Based Diarylamides as Potent B-RAF^V600E/C-RAF Kinase Inhibitors Endowed with Promising In Vitro Anticancer Activity” (International Journal of Molecular Sciences, 2023).

Target: T1, B-RAF^V600E (Homo sapiens, UniProt P15056, V600E)
T1 construct: purchased Reaction Biology Corporation (RBC), Kinase HotSpot service
Test: HotSpot kinase assay (RBC), B-RAF^V600E
Type: biochemical
Details: IC50 at 1 µM versus 10 µM ATP, B-RAF^V600E and C-RAF

With `CN1CCN(Cc2ccc(C(=O)Nc3cccc(Nc4ccc5cc(O)ccc5n4)c3)cc2C(F)(F)F)CC1` [Compound 18a, N-(3-((6-hydroxyquinolin-2-yl)amino)phenyl)-4-((4-methylpiperazin-1-yl)methyl)-3-(trifluoromethyl)benzamide] the inhibitory mode was “competitive ATP kinase inhibitor”.
